Test results from the supplement of paper PMC3334620.
In all, about 33,000 sequences were measured (“E-score (-0.5 to 0.5)”: median about -0.035, highest 2% from about 0.35 on). The list shows a part of the results.

biological target: T1, Pdr3 (UniProt P33200); assay: PBM E-score (8-mer binding enrichment) (E-score (-0.5 to 0.5)); higher = stronger / more preferred TF binding; most listed sequences are background and not binding sites; conditions: protein concentration: 200 nM; construct: GST-full length
T1 sequence: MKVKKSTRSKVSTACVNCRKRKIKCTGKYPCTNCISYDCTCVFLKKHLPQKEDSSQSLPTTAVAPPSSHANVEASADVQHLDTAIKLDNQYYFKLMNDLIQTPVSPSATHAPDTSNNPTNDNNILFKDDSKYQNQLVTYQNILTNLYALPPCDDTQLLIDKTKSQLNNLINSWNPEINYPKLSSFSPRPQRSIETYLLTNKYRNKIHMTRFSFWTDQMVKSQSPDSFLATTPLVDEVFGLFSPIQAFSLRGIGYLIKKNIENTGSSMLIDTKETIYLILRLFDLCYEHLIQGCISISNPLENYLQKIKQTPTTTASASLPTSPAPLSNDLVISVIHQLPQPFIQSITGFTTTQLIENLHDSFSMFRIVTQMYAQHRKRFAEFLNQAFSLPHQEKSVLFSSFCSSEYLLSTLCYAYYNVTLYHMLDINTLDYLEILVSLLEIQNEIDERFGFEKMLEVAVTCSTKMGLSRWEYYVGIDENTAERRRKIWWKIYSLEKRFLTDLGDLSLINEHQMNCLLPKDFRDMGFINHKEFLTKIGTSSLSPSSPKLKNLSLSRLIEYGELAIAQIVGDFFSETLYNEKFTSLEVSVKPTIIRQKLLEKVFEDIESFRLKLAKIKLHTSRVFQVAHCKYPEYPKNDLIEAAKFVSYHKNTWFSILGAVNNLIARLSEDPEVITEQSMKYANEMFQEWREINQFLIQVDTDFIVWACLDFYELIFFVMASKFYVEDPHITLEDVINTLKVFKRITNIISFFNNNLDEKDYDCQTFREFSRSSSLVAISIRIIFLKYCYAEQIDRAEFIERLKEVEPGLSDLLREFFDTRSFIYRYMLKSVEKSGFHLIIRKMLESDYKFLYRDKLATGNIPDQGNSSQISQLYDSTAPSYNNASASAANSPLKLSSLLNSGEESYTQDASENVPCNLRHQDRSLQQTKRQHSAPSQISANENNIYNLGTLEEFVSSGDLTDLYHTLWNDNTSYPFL
In short: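 Bound GST-tagged yeast transcription factors, applied at about 100-200 nM to double-stranded universal all-10-mer Agilent arrays, were detected with fluorescent anti-GST. Scans were normalised with masliner. A modified Wilcoxon-Mann-Whitney statistic, the E-score, was assigned to each ungapped eight-base word pooled with its reverse complement by the Universal PBM Analysis Suite.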

| Sequence | PBM E-score |
| --- | --- |
| ACCTTGAT | 0.00904 |
| TGATGTAA | -0.0541 |
| GTGGTTCA | 0.0321 |
| TAACCGGA | 0.308 |
| CACTACAC | -0.0862 |
| CGTTTGGA | 0.021 |
| CTTTGGCC | -0.0664 |
| CGGGCATA | 0.0796 |
| AAGCTGCG | -0.0451 |
| AATCAGTA | -0.0622 |
| GCGATGTA | -0.0622 |
| AGTACCAG | -0.0418 |
| AGTCTGTG | -0.193 |
| GGACGTGA | -0.0735 |
| ACCTCTGC | -0.197 |
| AATGCTTC | -0.0412 |
| GAGTAAAC | -0.0241 |
| ATTACGTA | 0.0362 |
| GTTAGAAC | -0.0252 |
| AGCTCGGG | 0.241 |
| CGTTACAC | -0.0938 |
| ATTACACC | -0.114 |
| CTACGCAC | -0.177 |
| GGTGTCCA | 0.0211 |
| ACTGAAAG | -0.0726 |

| Sequence | PBM E-score |
| --- | --- |
| CCCTTGGA | -0.00729 |
| CCAGCGTA | -0.122 |
| GCGTTTCA | -0.135 |
| CCAGTACC | 0.0713 |
| GAGTAGTA | -0.034 |
| CCTACCCG | 0.178 |
| CACATAGC | -0.00643 |
| AGCCGGGG | 0.152 |
| CGATCGAA | 0.0687 |
| ATGGCGCA | 0.153 |
| AATCCGCG | 0.388 |
| ACTATTTA | 0.204 |
| CATCTGAC | -0.151 |
| CTACTTAC | -0.312 |
| AATTCTGT | 0.0536 |
| GCCGAACC | 0.129 |
| AACAATTA | 0.219 |
| GGTGGGAC | -0.132 |
| AACTATCC | 0.151 |
| AGCTATGC | -0.331 |
| CAATGGCA | -0.0775 |
| AATCTTCA | 0.0253 |
| CGACCCAC | -0.00081 |
| AGGAAGCC | -0.0295 |
| AAGCATTG | -0.219 |

| Sequence | PBM E-score |
| --- | --- |
| GAACGGAC | 0.259 |
| AGGAGATC | 0.0413 |
| AGCCTTAA | -0.174 |
| AAGGGTAC | -0.2 |
| AACAAGTG | -0.111 |
| GTGGAGCA | -0.104 |
| AAGTATTG | -0.109 |
| CCCAGTTC | 0.188 |
| GGAGCCGA | 0.152 |
| TATTTGCA | -0.108 |
| TGTCCACA | 0.0302 |
| ACACTGAT | -0.25 |
| GTGTTTGA | -0.166 |
| GCTCCGAA | 0.361 |
| AGTATTCC | 0.34 |
| CAGCACTA | -0.225 |
| CTATTCGA | -0.315 |
| CTTGCCGC | 0.148 |
| CAAAGTCA | -0.0562 |
| AGATGCAC | -0.204 |
| GAATTCAA | 0.171 |
| GGCATCCA | -0.23 |
| CCGAGGTA | 0.238 |
| GGTTAGCA | -0.243 |
| AAAAATGC | 0.19 |

| Sequence | PBM E-score |
| --- | --- |
| GAAGCTTC | 0.22 |
| CATTTGAC | -0.0401 |
| CCGACGGA | 0.413 |
| GTAGGACA | -0.0244 |
| CTTGAGCA | -0.262 |
| ACGGCAAT | 0.193 |
| GCGACTCA | -0.186 |
| GGAACAAA | 0.352 |
| GAAAATTA | 0.0464 |
| CAGGCTCG | -0.00697 |
| TCACGTGA | 0.0624 |
| GTCCCAAA | -0.154 |
| CTAACTAC | -0.168 |
| CGTAGGAC | -0.0491 |
| GACACAAA | 0.113 |
| CCTTTCTA | -0.144 |
| ACAAGAAA | 0.0587 |
| ACCAGGAC | 0.00157 |
| AGGCGAGA | -0.239 |
| AGAATGAG | -0.14 |
| AGAATCAC | 0.112 |
| CCACGTCG | 0.031 |
| GCTTACTA | -0.0891 |
| ACAACGGG | 0.221 |
| CGACTAGA | -0.284 |

| Sequence | PBM E-score |
| --- | --- |
| CCAGGCTA | -0.242 |
| ACTCACCG | 0.00845 |
| CGGAATCC | 0.461 |
| CTCGTGCA | -0.016 |
| CGCGATAC | 0.178 |
| AATCCATA | 0.0673 |
| GAAACCCA | 0.12 |
| CTTAACAA | -0.113 |
| AGTCCCGG | 0.347 |
| AAAGCTCA | -0.213 |
| AGACAATC | 0.0204 |
| ACAGATCG | -0.109 |
| CTGCACGC | -0.191 |
| AAGCCTAG | -0.191 |
| TGAGACCA | -0.113 |
| ATCTGTTG | -0.19 |
| AGCTGCGG | 0.133 |
| GCGCTATA | -0.0583 |
| CACGTTAA | -0.185 |
| CCCGCGTA | 0.157 |
| TACCGGAA | 0.44 |
| CTCGGTAC | -0.072 |
| CCCGACAA | 0.281 |
| CTAGGACC | -0.256 |
| AGTAGAGA | -0.199 |

| Sequence | PBM E-score |
| --- | --- |
| GAGCGGGC | 0.113 |
| AGGATGAA | -0.204 |
| ATGGGCAC | 0.032 |
| GCGCTCAC | 0.0758 |
| ACAATGGG | 0.121 |
| CGTCTGTA | -0.14 |
| AGTATAAA | 0.217 |
| CCCGTGCA | 0.104 |
| CCTCAGAG | -0.148 |
| AGCCTTAG | -0.37 |
| AGGTGTGC | -0.0606 |
| ACATTATG | -0.0135 |
| GATTGAAA | -0.0455 |
| CTCACGAC | -0.0746 |
| AAGGCTGG | -0.352 |
| CCCAAAAG | -0.143 |
| AGTGGAGA | -0.117 |
| ATAGTGGC | -0.107 |
| ATAGGGGG | -0.183 |
| ACGACAGT | -0.19 |
| AATACTCA | -0.0375 |
| TACGCGCA | 0.0833 |
| AGTCTGGC | -0.171 |
| CGAACATC | 0.0578 |
| GTCCCAGA | -0.271 |

| Sequence | PBM E-score |
| --- | --- |
| TCTCGAGA | -0.111 |
| AGGTCTAT | -0.0513 |
| AGATCAAT | -0.0927 |
| GCTTATAA | -0.0228 |
| ACCGCAGA | -0.143 |
| ACATGTTA | -0.0758 |
| CTAGTATC | 0.188 |
| AACATACT | 0.0104 |
| CATAAGCA | -0.181 |
| TAACACCA | -0.0859 |
| CTATATGC | 0.0111 |
| CGACGCTA | -0.152 |
| AGCCGAGG | 0.163 |
| AATTTGAA | 0.05 |
| GATCTAGC | -0.139 |
| CCGATAAG | 0.132 |
| AGGCTATG | -0.213 |
| CGTGATTA | 0.0343 |
| GAGTTAAC | -0.0893 |
| CCAGGCGC | -0.0229 |
| ACGACGAC | -0.11 |
| GAACATCA | 0.0015 |
| GCTCGTCC | -0.0189 |
| ATGTGTAA | -0.145 |
| CAGTGCGC | -0.0956 |

| Sequence | PBM E-score |
| --- | --- |
| CGTTGACC | -0.122 |
| GAAGCATC | 0.0724 |
| CCAATGGA | -0.0405 |
| CAGCTGGC | 0.0297 |
| CTTAACGC | -0.195 |
| ACCCCAGG | -0.219 |
| CTGGAACC | -0.00182 |
| AACCAGCT | -0.206 |
| AGTCAGAT | -0.213 |
| ATACGAGC | -0.0573 |
| CATACTGG | -0.0204 |
| GTTCTGTA | -0.0301 |
| ACTTCAGG | -0.0654 |
| AGAACATA | 0.077 |
| AAGGAACG | 0.00917 |
| ATCATACG | -0.00908 |
| AGCCGCCG | 0.232 |
| ATACTGAA | -0.0961 |
| AACACCTG | -0.156 |
| ATCCGGCC | 0.403 |
| CTTGACAC | -0.222 |
| GCCCTATA | -0.0113 |
| TAAAAAGA | -0.101 |
| ACGTGCGC | 0.0301 |
| CAACGCCA | -0.123 |

| Sequence | PBM E-score |
| --- | --- |
| TTCCCAAA | -0.0652 |
| CATGCTGA | 0.0243 |
| ATTATATC | 0.0149 |
| GAGCCCAA | -0.0941 |
| CATGCACC | -0.0886 |
| CTCGAGTC | -0.0944 |
| ATGGAGAC | -0.0549 |
| CGGTATTC | 0.18 |
| AAAGTTAT | 0.0193 |
| CCAGATAG | -0.228 |
| GGTATGAA | -0.116 |
| GGGTTGCA | 0.0143 |
| AAGATTGC | 0.0486 |
| CTGCGTGA | -0.00693 |
| AGCAAATA | -0.0908 |
| GGCTCTAA | -0.0483 |
| CAAGGGTC | 0.0449 |
| CGTAACGC | -0.0244 |
| AGGTCAAG | -0.162 |
